# From the supplement of paper PMC3334620
# Over roughly 33,000 sequences, “E-score (-0.5 to 0.5)” has its median near -0.021; the highest 2% begin near 0.32. The list shows a part of the results.
# Target: T1, Zap1 (UniProt P47043)
# T1 sequence: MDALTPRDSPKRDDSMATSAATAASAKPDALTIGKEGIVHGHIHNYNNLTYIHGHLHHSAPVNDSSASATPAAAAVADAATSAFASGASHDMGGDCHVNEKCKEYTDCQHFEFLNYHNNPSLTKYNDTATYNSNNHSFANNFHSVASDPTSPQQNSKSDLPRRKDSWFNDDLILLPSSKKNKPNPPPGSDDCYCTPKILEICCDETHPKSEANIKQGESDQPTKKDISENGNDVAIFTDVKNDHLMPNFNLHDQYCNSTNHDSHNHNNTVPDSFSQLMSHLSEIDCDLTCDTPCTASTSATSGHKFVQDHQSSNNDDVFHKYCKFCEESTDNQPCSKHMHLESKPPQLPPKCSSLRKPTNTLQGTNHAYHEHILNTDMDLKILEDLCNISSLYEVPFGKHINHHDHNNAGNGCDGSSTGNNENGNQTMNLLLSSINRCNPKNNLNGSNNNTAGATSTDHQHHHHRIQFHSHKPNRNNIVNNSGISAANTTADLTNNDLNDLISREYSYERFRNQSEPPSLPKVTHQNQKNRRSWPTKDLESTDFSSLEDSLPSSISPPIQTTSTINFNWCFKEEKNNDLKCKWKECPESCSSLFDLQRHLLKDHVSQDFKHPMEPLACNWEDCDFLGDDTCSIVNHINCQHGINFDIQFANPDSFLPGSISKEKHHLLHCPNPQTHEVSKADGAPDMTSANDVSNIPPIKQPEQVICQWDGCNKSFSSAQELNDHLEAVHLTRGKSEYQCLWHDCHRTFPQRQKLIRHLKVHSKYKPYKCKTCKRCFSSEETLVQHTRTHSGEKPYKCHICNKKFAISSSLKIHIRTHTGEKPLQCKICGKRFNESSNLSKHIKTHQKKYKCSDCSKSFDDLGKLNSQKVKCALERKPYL
# Test: PBM E-score (8-mer binding enrichment) (E-score (-0.5 to 0.5)); higher = stronger / more preferred TF binding; most listed sequences are background and not binding sites
# Settings: protein concentration: 200 nM; construct: GST-full length
# Outline: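 Universal all-10-mer Agilent arrays, double-stranded by primer extension on fresh or once-stripped slides, were probed with about 100-200 nM GST-tagged yeast transcription factors made by PURExpress. Fluorescent anti-GST detected bound protein, and masliner normalised the scans. E-scores from the Universal PBM Analysis Suite were given to each ungapped eight-base word pooled with its reverse complement.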
row,Sequence,PBM E-score
1,ACGCTGTA,0.0193
2,CTTTAGAA,0.118
3,ACGTAGGA,-0.12
4,CTGCCGCA,-0.14
5,CTATAATC,-0.017
6,AGCGCCGC,-0.209
7,GTCGTCGA,-0.164
8,AATGCCGA,-0.149
9,CACCCGAA,0.3
10,ACGAAATG,0.0348
11,AGCAGAGA,-0.167
12,GGCGAAAA,0.0311
13,CCATCGCG,0.222
14,GCATTTAA,0.177
15,GAAGTCCA,0.0624
16,AGAAGGCA,-0.161
17,CCGAGCAC,-0.0385
18,AGTACGCC,-0.146
19,ACGGTCTC,0.17
20,ATTAGTCG,0.00798
21,CACATCAG,-0.0384
22,GGGTAGTA,0.219

row,Sequence,PBM E-score
1,CGGCTTAG,-0.0939
2,ACTCCCTA,-0.307
3,CCTAACAC,0.146
4,GGCAAGCC,-0.273
5,AAACTTCT,0.0376
6,AAGGACAA,-0.0382
7,AATTTGTG,0.107
8,CCGGCTAA,-0.18
9,AACGCACT,0.0749
10,CTGGGACA,-0.175
11,TAGCGCAA,-0.0297
12,GCGTATTA,-0.00216
13,GTAGCGCA,-0.174
14,AATTACAA,0.101
15,AGATTTAT,0.048
16,AACATAAA,0.136
17,GGGGACGA,-0.238
18,ACAACACG,-0.301
19,TTAGGCAA,-0.0283
20,CCATACGG,0.0563
21,ACTAGAGG,-0.0174
22,GATCTAAA,-0.0138

row,Sequence,PBM E-score
1,GGGAGCGA,-0.263
2,ATCACTCA,0.0763
3,CCGAGTGA,0.00132
4,GACTCGCC,-0.251
5,GATACTCA,-0.029
6,ACAATCTA,-0.104
7,GGGATGCA,-0.229
8,CATCTGGG,-0.0798
9,GCTTAGCC,-0.303
10,ACGGCTTA,0.0414
11,CGCACACC,0.022
12,AGACACGA,-0.162
13,TGACTGAA,-0.0715
14,AACTAGAG,-0.0699
15,ATCTACCG,0.0761
16,AGCTCCTA,-0.261
17,CTATGCGC,-0.176
18,GCTTTTCC,-0.0881
19,CAACCTTC,0.313
20,AGTAAGCA,-0.0127
21,GAGCATCA,-0.305
22,GAGGGCTA,-0.27

row,Sequence,PBM E-score
1,TCTGATCA,0.0329
2,TCTCGCAA,-0.0144
3,GAGTGTTA,-0.0489
4,ACTTTGAT,-0.0578
5,AAAGTACA,0.0715
6,AGCCGTCC,-0.215
7,ACATCCAC,0.143
8,AATGGTAC,0.259
9,AAAAATAG,0.0926
10,GGTGCTGA,-0.00403
11,CCGGGTCG,0.0687
12,CGGCAAGA,-0.0749
13,ACGGTGCT,0.00765
14,GGCACTAA,-0.0314
15,AGGATGAT,-0.152
16,ACCGGATG,0.0538
17,GGCTCAGA,-0.101
18,GGCATCCC,-0.338
19,CGACGCGA,-0.0454
20,CATCCAGA,-0.15
